{
  "source": "paper PMC4336329",
  "about": "(PLoS ONE, 2015)",
  "note": "Hit rate of the full screen: of about 310,000 compounds, about 2,200 (0.71%) showed an effect of 50% or more. The effect is printed as a negative number. This is one part of the list.",
  "data": [
    {"molecular_target": "human ether-à-go-go-related gene (hERG) potassium channel (human, UniProt Q12809)", "sequence (Q12809 whole entry, looked up)": "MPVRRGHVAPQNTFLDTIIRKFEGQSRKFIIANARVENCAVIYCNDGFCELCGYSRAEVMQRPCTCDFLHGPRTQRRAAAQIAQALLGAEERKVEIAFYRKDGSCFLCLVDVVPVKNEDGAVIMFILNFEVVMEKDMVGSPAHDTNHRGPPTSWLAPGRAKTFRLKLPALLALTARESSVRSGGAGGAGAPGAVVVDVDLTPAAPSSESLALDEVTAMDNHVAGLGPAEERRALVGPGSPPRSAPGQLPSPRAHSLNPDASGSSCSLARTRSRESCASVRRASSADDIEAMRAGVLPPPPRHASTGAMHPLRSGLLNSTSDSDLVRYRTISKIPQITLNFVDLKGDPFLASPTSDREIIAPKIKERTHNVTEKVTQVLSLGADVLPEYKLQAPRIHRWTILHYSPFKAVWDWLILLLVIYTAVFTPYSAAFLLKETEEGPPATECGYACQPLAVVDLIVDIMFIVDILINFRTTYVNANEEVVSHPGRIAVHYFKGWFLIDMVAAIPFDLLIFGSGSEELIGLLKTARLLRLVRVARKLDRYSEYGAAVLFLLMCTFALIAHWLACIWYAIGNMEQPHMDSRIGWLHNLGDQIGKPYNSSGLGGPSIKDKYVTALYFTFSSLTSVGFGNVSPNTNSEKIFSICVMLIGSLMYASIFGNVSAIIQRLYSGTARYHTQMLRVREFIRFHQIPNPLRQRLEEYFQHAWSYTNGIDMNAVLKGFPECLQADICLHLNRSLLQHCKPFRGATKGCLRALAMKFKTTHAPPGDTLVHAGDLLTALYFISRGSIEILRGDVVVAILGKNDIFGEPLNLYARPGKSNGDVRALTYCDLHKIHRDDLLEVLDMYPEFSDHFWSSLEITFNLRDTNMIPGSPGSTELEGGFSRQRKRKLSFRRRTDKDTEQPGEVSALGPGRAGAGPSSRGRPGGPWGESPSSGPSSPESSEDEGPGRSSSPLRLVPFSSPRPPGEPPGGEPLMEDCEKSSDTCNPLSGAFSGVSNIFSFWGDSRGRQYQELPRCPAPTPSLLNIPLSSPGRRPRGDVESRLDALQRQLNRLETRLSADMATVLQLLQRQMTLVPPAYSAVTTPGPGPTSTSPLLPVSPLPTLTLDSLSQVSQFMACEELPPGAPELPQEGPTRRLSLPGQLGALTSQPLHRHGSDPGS", "assay": "primary screen, population patch clamp on CHO cells stably expressing hERG", "units": {"hERG current change (%, negative = inhibition) at 1uM": "%"}, "values": [
      {"smiles": "COC(=O)c1ccc(NS(=O)(=O)c2ccc(-c3cc(C)no3)s2)cc1", "hERG current change (%, negative = inhibition) at 1uM": 9.22},
      {"smiles": "Cc1cccc(OCC(=O)N(Cc2ccco2)C2CCS(=O)(=O)C2)c1C", "note": "(stereo not shown)", "hERG current change (%, negative = inhibition) at 1uM": -5.31},
      {"smiles": "Cc1ccccc1OC(C)C(=O)Nc1cccnc1", "note": "(stereo not shown)", "hERG current change (%, negative = inhibition) at 1uM": 17.1},
      {"smiles": "Cc1ccc(CNC(=O)CNS(=O)(=O)c2ccc(Br)s2)cc1", "hERG current change (%, negative = inhibition) at 1uM": 6.27},
      {"smiles": "CN(CCc1ccccn1)C(=S)Nc1ccc(Cl)cc1Cl", "hERG current change (%, negative = inhibition) at 1uM": -4.04},
      {"smiles": "Cc1cccc(NC(=O)CSc2nc3c([nH]c4ccccc43)c(=O)n2C)c1", "hERG current change (%, negative = inhibition) at 1uM": 14.3},
      {"smiles": "O=C1NC(=O)C(c2ccc(Cl)cc2)N1", "note": "(stereo not shown)", "hERG current change (%, negative = inhibition) at 1uM": 8.62},
      {"smiles": "COc1ccc(-c2nnc3n2N=C(C)CS3)cc1OC", "hERG current change (%, negative = inhibition) at 1uM": 7.9},
      {"smiles": "Cc1nc(SCC(=O)Nc2cccc(C(=O)O)c2)n[nH]1", "hERG current change (%, negative = inhibition) at 1uM": 16.2},
      {"smiles": "CCOc1nc2cnccc2n(CC(=O)Nc2ccccc2C(=O)OC)c1=O", "hERG current change (%, negative = inhibition) at 1uM": 1.57},
      {"smiles": "COc1ccc(-n2nc(C(=O)NCC(=O)N3CCN(c4ccccc4OC)CC3)c3ccccc3c2=O)cc1OC", "hERG current change (%, negative = inhibition) at 1uM": -0.135},
      {"smiles": "Cc1nn(CCc2n[nH]c(=S)n2-c2ccc(F)c(Cl)c2)c(C)c1[N+](=O)[O-]", "hERG current change (%, negative = inhibition) at 1uM": 14.9},
      {"smiles": "COc1ccc(NC(=O)c2noc3c2CCC3)cc1", "hERG current change (%, negative = inhibition) at 1uM": 0.883},
      {"smiles": "CC(C)(C)NC(=S)N1CCn2cccc2C1c1cccnc1", "note": "(stereo not shown)", "hERG current change (%, negative = inhibition) at 1uM": 3.72},
      {"smiles": "CCNC(=O)CC1C(=O)N(c2ccc(F)cc2)C(=O)N1Cc1cccs1", "note": "(stereo not shown)", "hERG current change (%, negative = inhibition) at 1uM": -0.659},
      {"smiles": "CCOc1ccccc1CNS(=O)(=O)c1ccc2[nH]c(=O)sc2c1", "hERG current change (%, negative = inhibition) at 1uM": 3.85},
      {"smiles": "O=C(Nc1ccc(NC(=O)c2ccco2)cc1)c1cnccn1", "hERG current change (%, negative = inhibition) at 1uM": 19.8},
      {"smiles": "Cc1c(C)c2cc(Cl)c(OC(C)C(=O)NCCN3CCOCC3)cc2oc1=O", "note": "(stereo not shown)", "hERG current change (%, negative = inhibition) at 1uM": 9.8},
      {"smiles": "CN(CC(=O)OCC(=O)c1c(N)n(C)c(=O)n(C)c1=O)S(=O)(=O)c1ccc(Cl)cc1", "hERG current change (%, negative = inhibition) at 1uM": -22.2},
      {"smiles": "CCCCCc1nc2c(C#N)c(-c3ccc(Cl)cc3)ccn2n1", "hERG current change (%, negative = inhibition) at 1uM": 11.3},
      {"smiles": "O=C(CC(Cc1ccccc1)c1ccco1)NC1CCCCC1", "note": "(stereo not shown)", "hERG current change (%, negative = inhibition) at 1uM": 15},
      {"smiles": "O=C(Cn1[nH]c(=O)c2ccccc2c1=O)Nc1cccc(S(=O)(=O)N2CCCCCC2)c1", "hERG current change (%, negative = inhibition) at 1uM": 2.17},
      {"smiles": "C/C(=N\\NC(=O)c1ccc(N(C)C)cc1)c1cccnc1", "hERG current change (%, negative = inhibition) at 1uM": 1.57},
      {"smiles": "O=C(CN1CCCCC1)N=Nc1c(O)[nH]c2ccccc12", "hERG current change (%, negative = inhibition) at 1uM": 8.41},
      {"smiles": "Cc1noc(C)c1COC(=O)c1ccc(S(=O)(=O)N2CCCCC2)cc1", "hERG current change (%, negative = inhibition) at 1uM": 12.8},
      {"smiles": "Oc1ccc(Cl)cc1-c1cc(-c2ccccc2)n[nH]1", "hERG current change (%, negative = inhibition) at 1uM": 15.4},
      {"smiles": "CCN(CC)c1ccc2c(-c3ccc(S(=O)(=O)[O-])cc3S(=O)(=O)[O-])c3ccc(=[N+](CC)CC)cc-3oc2c1.[Na+]", "hERG current change (%, negative = inhibition) at 1uM": 13},
      {"smiles": "COC(=O)C(NC(=O)c1c(C)nn(C)c1Cl)c1ccccc1", "note": "(stereo not shown)", "hERG current change (%, negative = inhibition) at 1uM": 14.2},
      {"smiles": "O=C(Nc1cccc(-c2ccc(F)cc2)c1)C1CCCN(C(=O)c2cscn2)C1", "note": "(stereo not shown)", "hERG current change (%, negative = inhibition) at 1uM": 14},
      {"smiles": "Cc1ccc(N)c([N+](=O)[O-])c1", "hERG current change (%, negative = inhibition) at 1uM": 12.3},
      {"smiles": "CNC(=O)c1c(NC(=O)c2ccco2)sc2c1CCC2", "hERG current change (%, negative = inhibition) at 1uM": 13},
      {"smiles": "CCCCc1nnc(SCC(=O)NC2CCCCC2)n1C", "hERG current change (%, negative = inhibition) at 1uM": 10.4},
      {"smiles": "COCC(=O)Nc1ccc(Nc2ccccc2)cc1", "hERG current change (%, negative = inhibition) at 1uM": -3.39},
      {"smiles": "Clc1ccc(C2=NOC(c3nnc(-c4ccccc4)o3)C2)cc1", "note": "(stereo not shown)", "hERG current change (%, negative = inhibition) at 1uM": 8.18},
      {"smiles": "O=C(O)CCN1C(=O)c2ccc(NC(=O)c3ccco3)cc2C1=O", "hERG current change (%, negative = inhibition) at 1uM": 4.1},
      {"smiles": "O=C(O)c1nn(Cc2ccc(Cl)cc2Cl)c2ccccc12", "hERG current change (%, negative = inhibition) at 1uM": 13.3},
      {"smiles": "COc1ccc(CCNC(=O)Nc2cccc([N+](=O)[O-])c2)cc1", "hERG current change (%, negative = inhibition) at 1uM": 13.3},
      {"smiles": "CCCCC(=O)NC1(C(F)(F)F)C(=O)N(Cc2ccco2)C(C)=C1C(=O)OC", "note": "(stereo not shown)", "hERG current change (%, negative = inhibition) at 1uM": 10.4},
      {"smiles": "O=C1C2CC=CCC2C(=O)N1n1cnnc1", "note": "(stereo not shown)", "hERG current change (%, negative = inhibition) at 1uM": 12.3},
      {"smiles": "COc1cc2cc(CCCOC(=O)CCC(=O)O)oc(=O)c2cc1OC", "hERG current change (%, negative = inhibition) at 1uM": 13.3},
      {"smiles": "CC1=CCC2C(=O)N(c3ccc(OC(=O)c4ccco4)cc3)C(=O)C2C1", "note": "(stereo not shown)", "hERG current change (%, negative = inhibition) at 1uM": 12.7},
      {"smiles": "O=C(Nc1ccccn1)c1ccc2c(c1)S(=O)(=O)c1ccccc1C2=O", "hERG current change (%, negative = inhibition) at 1uM": 4.95},
      {"smiles": "Cc1ccc(/C=C2\\S/C(=N/S(=O)(=O)c3cccs3)NC2=O)cc1", "hERG current change (%, negative = inhibition) at 1uM": 13},
      {"smiles": "Cc1ccc(S(=O)(=O)Nc2ccc(N3CCOCC3)cc2)cc1[N+](=O)[O-]", "hERG current change (%, negative = inhibition) at 1uM": 1.09},
      {"smiles": "CCN(CC)S(=O)(=O)c1ccc(N2CCOCC2)c(NC(=O)COc2ccccc2)c1", "hERG current change (%, negative = inhibition) at 1uM": -1.21},
      {"smiles": "C[C@H](Nc1ncnc2sc3c(c12)CCC3)C(=O)O", "hERG current change (%, negative = inhibition) at 1uM": 15.5},
      {"smiles": "S=c1[nH]c2cc3c(cc2[nH]1)OCCO3", "hERG current change (%, negative = inhibition) at 1uM": 12.4},
      {"smiles": "COc1ccc(CCNC(=O)CSc2nc(N)cc(=O)[nH]2)cc1OC", "hERG current change (%, negative = inhibition) at 1uM": 24.9},
      {"smiles": "COCCc1ncc(CN2CCCCC2C(=O)Nc2ccc(Oc3ccccc3)nc2)cn1", "note": "(stereo not shown)", "hERG current change (%, negative = inhibition) at 1uM": 3.33},
      {"smiles": "CC(NC(=O)C(=O)NCC1CCCO1)c1ccccc1", "note": "(stereo not shown)", "hERG current change (%, negative = inhibition) at 1uM": 14.7},
      {"smiles": "C#CCNC(=O)C1=C[C@H](c2ccc3c(c2)OCO3)C[C@H](OCCCCO)O1", "hERG current change (%, negative = inhibition) at 1uM": 15},
      {"smiles": "CCN(CC)C(=O)n1c(Cc2ccccc2)nc2ccccc21", "hERG current change (%, negative = inhibition) at 1uM": 2.89},
      {"smiles": "COC(=O)C1=C(C)NC(=O)/C1=C\\c1cc(C)n(-c2c(C)cccc2C)c1C", "hERG current change (%, negative = inhibition) at 1uM": -0.839},
      {"smiles": "O=c1c2ccccc2nc(CNCc2ccco2)n1-c1ccc(F)cc1", "hERG current change (%, negative = inhibition) at 1uM": 8.43},
      {"smiles": "COc1ccc(OC)c(-n2nnnc2SCC(=O)Nc2ccccc2OC)c1", "hERG current change (%, negative = inhibition) at 1uM": 11.7},
      {"smiles": "COC(=O)C(CC(C)C)NC(=O)/C=C/c1ccc(Cl)cc1", "note": "(stereo not shown)", "hERG current change (%, negative = inhibition) at 1uM": 3.59},
      {"smiles": "COc1ccc(CN2CCCC(C(=O)c3ccc4c(c3)OCO4)C2)c(F)c1", "note": "(stereo not shown)", "hERG current change (%, negative = inhibition) at 1uM": -8.02},
      {"smiles": "CN1CCN(c2ccc(Cl)cc2N)CC1", "hERG current change (%, negative = inhibition) at 1uM": 6.48}
    ]}
  ]
}
